{"source": "paper PMC4336329", "about": "(PLoS ONE, 2015)", "note": "Among all 310,000 compounds or so, about 2,200 (0.71%) showed an effect of 50% or more. Effects have a minus sign here. Some of the results follow."}
{"biological_target": "human ether-à-go-go-related gene (hERG) potassium channel (human, UniProt Q12809)", "sequence (Q12809 whole entry, looked up)": "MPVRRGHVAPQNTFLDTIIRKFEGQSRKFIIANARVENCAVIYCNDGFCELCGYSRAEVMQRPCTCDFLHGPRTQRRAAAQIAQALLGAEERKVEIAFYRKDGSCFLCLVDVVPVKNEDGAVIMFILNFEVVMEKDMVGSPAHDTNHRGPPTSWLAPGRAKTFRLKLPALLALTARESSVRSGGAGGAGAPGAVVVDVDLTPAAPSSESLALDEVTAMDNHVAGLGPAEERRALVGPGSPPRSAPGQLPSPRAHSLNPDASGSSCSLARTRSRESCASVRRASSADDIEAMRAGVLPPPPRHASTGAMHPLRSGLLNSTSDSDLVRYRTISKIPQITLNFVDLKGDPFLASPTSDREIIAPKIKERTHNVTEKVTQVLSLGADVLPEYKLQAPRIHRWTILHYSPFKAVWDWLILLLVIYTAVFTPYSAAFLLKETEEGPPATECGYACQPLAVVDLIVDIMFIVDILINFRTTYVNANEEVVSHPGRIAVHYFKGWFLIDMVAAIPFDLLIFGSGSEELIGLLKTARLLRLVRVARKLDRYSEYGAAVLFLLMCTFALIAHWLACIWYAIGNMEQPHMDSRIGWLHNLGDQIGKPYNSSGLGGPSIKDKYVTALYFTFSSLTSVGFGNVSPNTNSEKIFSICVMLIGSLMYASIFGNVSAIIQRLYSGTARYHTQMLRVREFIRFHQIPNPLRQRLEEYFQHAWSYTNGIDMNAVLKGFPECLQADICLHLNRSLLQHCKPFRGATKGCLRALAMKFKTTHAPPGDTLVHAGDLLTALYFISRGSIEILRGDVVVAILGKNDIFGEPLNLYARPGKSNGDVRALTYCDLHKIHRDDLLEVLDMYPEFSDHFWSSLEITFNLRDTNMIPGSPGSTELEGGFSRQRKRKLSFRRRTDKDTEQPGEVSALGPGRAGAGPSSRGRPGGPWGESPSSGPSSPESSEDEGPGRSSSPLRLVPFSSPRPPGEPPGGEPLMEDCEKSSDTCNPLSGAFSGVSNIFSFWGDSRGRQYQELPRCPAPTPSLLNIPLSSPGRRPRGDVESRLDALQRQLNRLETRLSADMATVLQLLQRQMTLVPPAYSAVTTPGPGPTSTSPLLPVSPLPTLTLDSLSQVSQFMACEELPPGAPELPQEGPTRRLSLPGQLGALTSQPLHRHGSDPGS", "experiment": "primary screen, population patch clamp on CHO cells stably expressing hERG", "units": {"hERG current change (%, negative = inhibition) at 1uM": "%"}}
{"smiles": "COc1ccccc1N=C1SC(C)CN1C(=O)C1CCC1", "note": "(stereo not shown)", "hERG current change (%, negative = inhibition) at 1uM": 9.35}
{"smiles": "COc1ccc(/C=C(\\C#N)C(=O)NCc2ccccc2)cc1", "hERG current change (%, negative = inhibition) at 1uM": 20}
{"smiles": "COc1ccc(-c2nnc3sc(-c4ccccc4OC)nn23)cc1", "hERG current change (%, negative = inhibition) at 1uM": 0.831}
{"smiles": "CC12CCC(C(=O)NNC(=O)c3ccc(Br)cc3)(OC1=O)C2(C)C", "note": "(stereo not shown)", "hERG current change (%, negative = inhibition) at 1uM": 26.8}
{"smiles": "O=C(Nc1ccc2oc(=O)ccc2c1)c1ccc2ccccc2c1", "hERG current change (%, negative = inhibition) at 1uM": 19.4}
{"smiles": "COc1ccc(C2C3=C(CCCC3=O)NC3=C2C(=O)c2ccccc23)cc1", "note": "(stereo not shown)", "hERG current change (%, negative = inhibition) at 1uM": 15}
{"smiles": "Cc1cc(NC(=O)CSCCc2ccncc2)no1", "hERG current change (%, negative = inhibition) at 1uM": 9.74}
{"smiles": "O=C(O)CC1=C(Nc2ccccc2)C(=O)N(c2ccccc2)C1c1ccc(F)cc1", "note": "(stereo not shown)", "hERG current change (%, negative = inhibition) at 1uM": 6.65}
{"smiles": "Cc1cc(C)cc(C(=O)OCC(=O)NC2CCCC2)c1", "hERG current change (%, negative = inhibition) at 1uM": 5.26}
{"smiles": "Cl.N=C(N)SCc1ccc(O)c([N+](=O)[O-])c1", "hERG current change (%, negative = inhibition) at 1uM": 5.74}
{"smiles": "CCOc1ccc(C(C)=O)cc1CC(C(N)=O)C(N)=O", "hERG current change (%, negative = inhibition) at 1uM": 18.7}
{"smiles": "O=C(NCc1ccccc1)C1(c2ccccc2)CCN(S(=O)(=O)c2ccccc2)CC1", "hERG current change (%, negative = inhibition) at 1uM": -11.2}
{"smiles": "COCCCNC(=O)c1cc2cc([N+](=O)[O-])cc(OC)c2oc1=O", "hERG current change (%, negative = inhibition) at 1uM": 4.34}
{"smiles": "COc1ccc(NS(=O)(=O)c2ccc(C)c(C(=O)N(C)CC(=O)Nc3cccc(OC)c3)c2)cc1", "hERG current change (%, negative = inhibition) at 1uM": 4.62}
{"smiles": "S=c1[nH]nc([C@@H]2C[C@H]2c2ccccc2)n1-c1ccccc1Cl", "hERG current change (%, negative = inhibition) at 1uM": 14}
{"smiles": "COc1cccc(C2=CC(c3ccc(C)cc3)n3ncnc3N2)c1", "note": "(stereo not shown)", "hERG current change (%, negative = inhibition) at 1uM": 2.57}
{"smiles": "Oc1c(N=NC(=S)Nc2ccccc2F)c2ccccc2n1Cc1ccc(Cl)cc1", "hERG current change (%, negative = inhibition) at 1uM": 11.2}
{"smiles": "CCC(=O)NC(=S)Nc1ccc(N2CCN(C(=O)c3ccc(Cl)cc3)CC2)cc1", "hERG current change (%, negative = inhibition) at 1uM": 4.44}
{"smiles": "COc1ccc2[nH]c(C)c(C(=O)CN(C)C)c2c1", "hERG current change (%, negative = inhibition) at 1uM": 6.98}
{"smiles": "CC1CN(C(=O)/C=C/c2cccc([N+](=O)[O-])c2)CC(C)O1", "note": "(stereo not shown)", "hERG current change (%, negative = inhibition) at 1uM": -4.44}
{"smiles": "O=C(NC1(C(F)(F)F)N=C2SCCN2C1=O)C1CCCCC1", "note": "(stereo not shown)", "hERG current change (%, negative = inhibition) at 1uM": 11.1}
{"smiles": "O=C(NCCO)c1ccc(CSc2nc3ccccc3[nH]2)cc1", "hERG current change (%, negative = inhibition) at 1uM": 10.6}
{"smiles": "O=C1CN(C(=O)c2c(F)cccc2F)C(c2ccc(F)cc2)c2cc(Br)ccc2N1", "note": "(stereo not shown)", "hERG current change (%, negative = inhibition) at 1uM": -2.22}
{"smiles": "Cc1cccc(C)c1NC(=O)c1cccc(N2C(=O)C3CCC(C)CC3C2=O)c1", "note": "(stereo not shown)", "hERG current change (%, negative = inhibition) at 1uM": 15.2}
{"smiles": "COc1cccc(=O)c2c(C)n(C)c(C)c12", "hERG current change (%, negative = inhibition) at 1uM": -13.8}
{"smiles": "O=C1NC(=O)N(c2ccccc2F)C(=O)/C1=C/c1ccc(Oc2ccc([N+](=O)[O-])cn2)cc1", "hERG current change (%, negative = inhibition) at 1uM": 8.42}
{"smiles": "Cc1cccc(S(=O)(=O)Nc2cccc3c2C(=O)c2ccccc2-3)c1", "hERG current change (%, negative = inhibition) at 1uM": 3.03}
{"smiles": "CC(NC(=S)NCc1ccc(F)cc1)C12CC3CC(CC(C3)C1)C2", "note": "(stereo not shown)", "hERG current change (%, negative = inhibition) at 1uM": 11.4}
{"smiles": "CC(C)(C)c1nc2ccc(NS(=O)(=O)c3ccc(F)c(F)c3F)cc2[nH]1", "hERG current change (%, negative = inhibition) at 1uM": 15}
{"smiles": "COc1ccc(N2CC(C(=O)Nc3cccc(OC(C)C)c3)CC2=O)cc1", "note": "(stereo not shown)", "hERG current change (%, negative = inhibition) at 1uM": 6.21}
{"smiles": "Cc1ccnc(SCc2ccc(C(=O)O)cc2)n1", "hERG current change (%, negative = inhibition) at 1uM": 10.1}
{"smiles": "O=c1[nH]c(CN2CC=C(c3ccccc3)CC2)nc2cc(C(F)(F)F)ccc12", "hERG current change (%, negative = inhibition) at 1uM": 6.41}
{"smiles": "COc1ccc(N2CC(=O)N(c3ccc(OC)c(OC)c3)CC2=O)cc1OC", "hERG current change (%, negative = inhibition) at 1uM": 5.5}
{"smiles": "CCN1CCN(c2nc3c(c(=O)[nH]2)CCCC3)CC1", "hERG current change (%, negative = inhibition) at 1uM": 9.93}
{"smiles": "CCCCn1c(C(C)NC(=O)CC)nc2ccccc21", "note": "(stereo not shown)", "hERG current change (%, negative = inhibition) at 1uM": -14.7}
{"smiles": "CCN1CCc2c(C#N)c(N3CCCCC3)nc(N3CCOCC3)c2C1", "hERG current change (%, negative = inhibition) at 1uM": 12.1}
{"smiles": "Cc1ccc(CN2CC(=O)N3[C@H]4c5ccccc5OC[C@@H]4[C@H](c4ccccc4)[C@]3(C)C2=O)cc1", "hERG current change (%, negative = inhibition) at 1uM": 12.9}
{"smiles": "CCN(CC)C(=O)Cc1cc(C(=O)O)c2ccccc2n1", "hERG current change (%, negative = inhibition) at 1uM": 13.3}
{"smiles": "COc1ccc(-n2nc(C(=O)NCC(=O)N3CC(C)CC(C)C3)c3ccccc3c2=O)c(OC)c1", "note": "(stereo not shown)", "hERG current change (%, negative = inhibition) at 1uM": 5.75}
{"smiles": "O=S(=O)(NC1CC1)c1ccc(S(=O)(=O)N2CCN3CCCC3C2)cc1", "note": "(stereo not shown)", "hERG current change (%, negative = inhibition) at 1uM": 9.94}
{"smiles": "Cc1ccccc1NC(=O)c1cccc(S(C)(=O)=O)c1", "hERG current change (%, negative = inhibition) at 1uM": 10}
{"smiles": "CCCc1cc(=O)oc2cc(C)cc(OCC(=O)NCc3ccncc3)c12", "hERG current change (%, negative = inhibition) at 1uM": -48}
{"smiles": "COc1c(O)cc2c(c1O)C1OC(CO)C(O)C(O)C1OC2=O.O", "note": "(stereo not shown)", "hERG current change (%, negative = inhibition) at 1uM": 2.31}
